# The other results are listed elsewhere or left out.
# Assays:
# Experiment in all cases: glycan array binding signal (z-score within array); higher = stronger binding
# Settings in all cases: glycan notation: IUPAC condensed, linker removed
# Gal(b1-3)GalNAc(b1-3)Gal = target: Gal(b1-3)GalNAc(b1-3)Gal
# How it was run: (§1)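 Glycan array binding is given as a within-array Z-score, which can be read as non-binding when negative. The arrays, 3228 of them, came from the Consortium for Functional Glycomics database and were retained only where the protein sequence was available. Z-scores were averaged across arrays of the same protein sequence at different concentrations or buffers and across linkers.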
# [1] = target: Gal(b1-3)GalNAc(b1-3)Gal(a1-4)Gal(b1-4)Glc
# How it was run: as §1
# [2] = target: Gal(b1-3)GalNAc(b1-3)Gal(b1-4)Glc
# How it was run: as §1
# [3] = target: Gal(b1-3)GalNAc(b1-3)Gal(b1-4)GlcNAc
# How it was run: as §1
# [4] = target: Gal(b1-3)GalNAc(b1-4)Gal(b1-4)Glc
# How it was run: as §1
# [5] = target: Gal(b1-3)GalNAc(b1-4)[Neu5Ac(a2-3)]Gal(b1-4)Glc
# How it was run: as §1
# Gal(b1-3)GlcNAc = target: Gal(b1-3)GlcNAc
# How it was run: as §1
# [6] = target: Gal(b1-3)GlcNAc(a1-3)Gal(b1-4)GlcNAc
# How it was run: as §1
# [7] = target: Gal(b1-3)GlcNAc(a1-6)Gal(b1-4)GlcNAc
# How it was run: as §1
# Gal(b1-3)GlcNAc(b1-2)Man = target: Gal(b1-3)GlcNAc(b1-2)Man
# How it was run: as §1
# [8] = target: Gal(b1-3)GlcNAc(b1-2)Man(a1-3)[Gal(b1-3)GlcNAc(b1-2)Man(a1-6)]Man(b1-4)GlcNAc(b1-4)GlcNAc
# How it was run: as §1
# [9] = target: Gal(b1-3)GlcNAc(b1-2)Man(a1-3)[Gal(b1-3)GlcNAc(b1-2)Man(a1-6)]Man(b1-4)GlcNAc(b1-4)[Fuc(a1-6)]GlcNAc
# How it was run: as §1
# [10] = target: Gal(b1-3)GlcNAc(b1-2)Man(a1-3)[GlcNAc(b1-4)][Gal(b1-3)GlcNAc(b1-2)Man(a1-6)]Man(b1-4)GlcNAc(b1-4)GlcNAc
# How it was run: as §1
# [11] = target: Gal(b1-3)GlcNAc(b1-2)[Gal(b1-3)GlcNAc(b1-6)]Man(a1-6)[Gal(b1-3)GlcNAc(b1-2)Man(a1-3)]Man(b1-4)GlcNAc(b1-4)GlcNAc
# How it was run: as §1
# [12] = target: Gal(b1-3)GlcNAc(b1-3)Gal(b1-3)GlcNAc
# How it was run: as §1
# [13] = target: Gal(b1-3)GlcNAc(b1-3)Gal(b1-4)Glc
# How it was run: as §1
# [14] = target: Gal(b1-3)GlcNAc(b1-3)Gal(b1-4)GlcNAc
# How it was run: as §1
# [15] = target: Gal(b1-3)GlcNAc(b1-3)Gal(b1-4)GlcNAc(b1-2)Man(a1-3)[Gal(b1-3)GlcNAc(b1-3)Gal(b1-4)GlcNAc(b1-2)Man(a1-6)]Man(b1-4)GlcNAc(b1-4)GlcNAc
# How it was run: as §1
# [16] = target: Gal(b1-3)GlcNAc(b1-3)Gal(b1-4)GlcNAc(b1-2)[Gal(b1-3)GlcNAc(b1-3)Gal(b1-4)GlcNAc(b1-6)]Man(a1-6)[Gal(b1-3)GlcNAc(b1-3)Gal(b1-4)GlcNAc(b1-2)Man(a1-3)]Man(b1-4)GlcNAc(b1-4)[Fuc(a1-6)]GlcNAc
# How it was run: as §1
# [17] = target: Gal(b1-3)GlcNAc(b1-3)Gal(b1-4)GlcNAc(b1-3)Gal(b1-4)GlcNAc(b1-2)[Gal(b1-3)GlcNAc(b1-3)Gal(b1-4)GlcNAc(b1-3)Gal(b1-4)GlcNAc(b1-6)]Man(a1-6)[Gal(b1-3)GlcNAc(b1-3)Gal(b1-4)GlcNAc(b1-3)Gal(b1-4)GlcNAc(b1-2)Man(a1-3)]Man(b1-4)GlcNAc(b1-4)[Fuc(a1-6)]GlcNAc
# How it was run: as §1
# [18] = target: Gal(b1-3)GlcNAc(b1-3)Gal(b1-4)GlcNAc(b1-6)[Gal(b1-3)GlcNAc(b1-3)]Gal(b1-4)Glc
# How it was run: as §1
# [19] = target: Gal(b1-3)GlcNAc(b1-3)Gal(b1-4)[Fuc(a1-3)]GlcNAc
# How it was run: as §1
# [20] = target: Gal(b1-3)GlcNAc(b1-3)Gal(b1-4)[Fuc(a1-3)]GlcNAc(b1-6)[Gal(b1-3)GlcNAc(b1-3)]Gal(b1-4)Glc
# How it was run: as §1
# [21] = target: Gal(b1-3)GlcNAc(b1-3)GalNAc
# How it was run: as §1
# [22] = target: Gal(b1-3)GlcNAc(b1-6)Gal(b1-4)GlcNAc
# How it was run: as §1
# [23] = target: Gal(b1-3)GlcNAc(b1-6)GalNAc
# How it was run: as §1
# [24] = target: Gal(b1-3)GlcNAc(b1-6)[Gal(b1-3)]GalNAc
# How it was run: as §1
# Gal(b1-3)GlcNAc6S = target: Gal(b1-3)GlcNAc6S
# How it was run: as §1
# [25] = target: Gal(b1-3)[Fuc(a1-4)]GlcNAc
# How it was run: as §1
# [26] = target: Gal(b1-3)[Fuc(a1-4)]GlcNAc(b1-2)Man
# How it was run: as §1
# [27] = target: Gal(b1-3)[Fuc(a1-4)]GlcNAc(b1-2)Man(a1-3)[Gal(b1-3)[Fuc(a1-4)]GlcNAc(b1-2)Man(a1-6)]Man(b1-4)GlcNAc(b1-4)[Fuc(a1-6)]GlcNAc
# How it was run: as §1
# [28] = target: Gal(b1-3)[Fuc(a1-4)]GlcNAc(b1-3)Gal(b1-3)[Fuc(a1-4)]GlcNAc
# How it was run: as §1
# [29] = target: Gal(b1-3)[Fuc(a1-4)]GlcNAc(b1-3)Gal(b1-4)GlcNAc
# How it was run: as §1
# [30] = target: Gal(b1-3)[Fuc(a1-4)]GlcNAc(b1-3)Gal(b1-4)[Fuc(a1-3)]GlcNAc
# How it was run: as §1
# [31] = target: Gal(b1-3)[Fuc(a1-4)]GlcNAc(b1-6)GalNAc
# How it was run: as §1
# [32] = target: Gal(b1-3)[GlcNAc(b1-6)]GalNAc
# How it was run: as §1
# [33] = target: Gal(b1-3)[GlcNAc(b1-6)]GlcNAc
# How it was run: as §1
# [34] = target: Gal(b1-3)[Neu5Ac(a2-6)]GalNAc
# How it was run: as §1
binder,measurement,setting,value
"Epa7 (Candida glabrata), Q6DTM6_CANGB (protein) MGSSHHHHHHSSGLVPRGSHMKDDYSSFLSNNNLGWTDPTEFPLGCSPNVTTPKNGLSMELYSYDLRKNGSYPCWDAAYLDPNYPRTGYKSHRLLAKVDGVTGNINFYYHATKGCTPEIDHLPASYNYPKPLTMTNFTMLLYGYFKPKVTGYHTFTISADDLLFVNFGAGNAFDCCKRESSADDFGNYQAYAVWGSQTAKDDLTVHLDAGLYYPIRIFFNNREYDAELSLTLKTESDSNPVIDFSDYFYSFDDTKDGCPGLVSYDTS",glycan array binding signal (z-score),Gal(b1-3)GalNAc(b1-3)Gal,11
same,glycan array binding signal (z-score),[1],4.75
same,glycan array binding signal (z-score),[2],-0.277
same,glycan array binding signal (z-score),[3],-0.27
same,glycan array binding signal (z-score),[4],7.99
same,glycan array binding signal (z-score),[5],4.82
same,glycan array binding signal (z-score),Gal(b1-3)GlcNAc,-0.104
same,glycan array binding signal (z-score),[6],-0.19
same,glycan array binding signal (z-score),[7],-0.187
same,glycan array binding signal (z-score),Gal(b1-3)GlcNAc(b1-2)Man,-0.088
same,glycan array binding signal (z-score),[8],-0.143
same,glycan array binding signal (z-score),[9],-0.195
same,glycan array binding signal (z-score),[10],-0.119
same,glycan array binding signal (z-score),[11],-0.167
same,glycan array binding signal (z-score),[12],-0.207
same,glycan array binding signal (z-score),[13],-0.198
same,glycan array binding signal (z-score),[14],-0.192
same,glycan array binding signal (z-score),[15],-0.16
same,glycan array binding signal (z-score),[16],-0.019
same,glycan array binding signal (z-score),[17],0.026
same,glycan array binding signal (z-score),[18],0.171
same,glycan array binding signal (z-score),[19],-0.19
same,glycan array binding signal (z-score),[20],-0.105
same,glycan array binding signal (z-score),[21],-0.223
same,glycan array binding signal (z-score),[22],0.085
same,glycan array binding signal (z-score),[23],-0.209
same,glycan array binding signal (z-score),[24],1.78
same,glycan array binding signal (z-score),Gal(b1-3)GlcNAc6S,-0.079
same,glycan array binding signal (z-score),[25],-0.248
same,glycan array binding signal (z-score),[26],-0.22
same,glycan array binding signal (z-score),[27],-0.144
same,glycan array binding signal (z-score),[28],-0.245
same,glycan array binding signal (z-score),[29],-0.264
same,glycan array binding signal (z-score),[30],-0.252
same,glycan array binding signal (z-score),[31],-0.168
same,glycan array binding signal (z-score),[32],1.21
same,glycan array binding signal (z-score),[33],0.08
same,glycan array binding signal (z-score),[34],4.18

# Reference: the supplement of paper PMC8728848
